Measurements published in US3932471A, “Azide” (priority 1973, dated 1976).
The name of at least one read-out is uncertain.

Assays:
Format in all cases: in vivo
Conditions in all cases: 50% mortality, three days
bean aphid (Aphis fabae) [1] = assay: Bean aphid contact spray test (A)
bean aphid (Aphis fabae) [2] = assay: Bean aphid systemic soil drench test (AS)
[3] = test system: red spider mite (Tetranychus sp.); assay: Red spider mite contact spray test (M)

| SMILES | A (aphid contact) rating (bean aphid (Aphis fabae) [1]) | AS (aphid systemic) rating (bean aphid (Aphis fabae) [2]) | M (mite contact) rating [3] |
| --- | --- | --- | --- |
| CNC(=O)ON=C(CSCC(=O)OC)C(C)(C)C [Compound 7503, 1-carbomethoxymethylthio-3,3-dimethyl-2-methylcarbamyloximinobutane] | 6 (50% mortality at concentration in parts per million of 16-8) | 0 (50% mortality at concentration in pounds per acre of >16) | 1 (50% mortality at concentration in parts per million of 500-250) |
| CNC(=O)ON=C(C)CSC [Compound 7603, 2-methylcarbamyloximino-1-methylthiopropane] | 4 (50% mortality at concentration in parts per million of 64-32) | 3 (50% mortality at concentration in pounds per acre of 4-2) | 0 (50% mortality at concentration in parts per million of >500) |
| CNC(=O)ON=C(CSc1ccccc1)C(C)(C)C [Compound 7718, 3,3-dimethyl-2-methylcarbamyloximino-1-phenylthiobutane] | 2 (50% mortality at concentration in parts per million of 250-128) | 1 (50% mortality at concentration in pounds per acre of 16-8) | 0 (50% mortality at concentration in parts per million of >500) |
| CCNC(=O)ON=C(CSC)C(C)(C)C [Compound 7797, 2-ethylcarbamyloximino-3,3-dimethyl-1-methylthiobutane] | 6 (50% mortality at concentration in parts per million of 16-8) | 4 (50% mortality at concentration in pounds per acre of 2-1) | 3 (50% mortality at concentration in parts per million of 128-64) |
| C=CCNC(=O)ON=C(CSC)C(C)(C)C [Compound 7799, 2-allylcarbamyloximino-3,3-dimethyl-1-methylthiobutane] | 5 (50% mortality at concentration in parts per million of 32-16) | 0 (50% mortality at concentration in pounds per acre of >16) | 2 (50% mortality at concentration in parts per million of 250-128) |
| CNC(=O)ON=C(C[S+](C)[O-])C(C)(C)C (centres unmarked) [Compound 7804, 3,3-dimethyl-2-methylcarbamyloximino-1-methylsulfinylbutane] | 8 (50% mortality at concentration in parts per million of 4-2) | 7 (50% mortality at concentration in pounds per acre of 1/4-1/8) | 5 (50% mortality at concentration in parts per million of 32-16) |
| CSCC(=NOC(N)=O)C(C)(C)C [Compound 7859, 2-carbamyloximino-3,3-dimethyl-1-methylthiobutane] | 7 (50% mortality at concentration in parts per million of 8-4) | 4 (50% mortality at concentration in pounds per acre of 2-1) | 5 (50% mortality at concentration in parts per million of 32-16) |
| CCSCC(=NOC(=O)NC)C(C)(C)C [Compound 7862, 1-ethylthio-3,3-dimethyl-2-methylcarbamyloximinobutane] | 6 (50% mortality at concentration in parts per million of 16-8) | 4 (50% mortality at concentration in pounds per acre of 2-1) | 3 (50% mortality at concentration in parts per million of 128-64) |
| CNC(=O)ON=C(CSC)C(C)C [Compound 7867, 3-methyl-2-methylcarbamyloximino-1-methylthiobutane] | 6 (50% mortality at concentration in parts per million of 16-8) | 4 (50% mortality at concentration in pounds per acre of 2-1) | 1 (50% mortality at concentration in parts per million of 500-250) |
| CSCC(=NOC(=O)N(C)C)C(C)(C)C [Compound 7871, 3,3-dimethyl-2-dimethylcarbamyloximino-1-methylthiobutane] | 5 (50% mortality at concentration in parts per million of 32-16) | 5 (50% mortality at concentration in pounds per acre of 1-1/2) | 1 (50% mortality at concentration in parts per million of 500-250) |
| C=CCSCC(=NOC(=O)NC)C(C)(C)C [Compound 7897, 1-allylthio-3,3-dimethyl-2-methylcarbamyloximinobutane] | 4 (50% mortality at concentration in parts per million of 64-32) | 3 (50% mortality at concentration in pounds per acre of 4-2) | 4 (50% mortality at concentration in parts per million of 64-32) |
| CCC(CSC)=NOC(=O)NC [Compound 7916, 2-methylcarbamyloximino-1-methylthiobutane] | 5 (50% mortality at concentration in parts per million of 32-16) | 3 (50% mortality at concentration in pounds per acre of 4-2) | 0 (50% mortality at concentration in parts per million of >500) |
| CCCC(C)(C)C(CSC)=NOC(=O)NC [Compound 7934, 3,3-dimethyl-2-methylcarbamyloximino-1-methylthiohexane] | 6 (50% mortality at concentration in parts per million of 16-8) | 2 (50% mortality at concentration in pounds per acre of 8-4) | 6 (50% mortality at concentration in parts per million of 16-8) |
| CNC(=O)ON=C(CSC)C(C)(C)SC [Compound 7960, 1,3-bis(methylthio)-3-methyl-2-methylcarbamyloximinobutane] | 5 (50% mortality at concentration in parts per million of 32-16) | 0 (50% mortality at concentration in pounds per acre of >16) | 5 (50% mortality at concentration in parts per million of 32-16) |
| CNC(=O)ON=C(CSC#N)C(C)(C)C [Compound 7991, 3,3-dimethyl-2-methylcarbamyloximino-1-thiocyanatobutane] | 2 (50% mortality at concentration in parts per million of 250-128) | 0 (50% mortality at concentration in pounds per acre of >16) | 0 (50% mortality at concentration in parts per million of >500) |
| CNC(=O)ON=C(C(C)SC)C(C)(C)C (centres unmarked) [Compound 8071, 2,2-dimethyl-3-methylcarbamyloximino-4-methylthiopentane] | 4 (50% mortality at concentration in parts per million of 64-32) | 4 (50% mortality at concentration in pounds per acre of 2-1) | 0 (50% mortality at concentration in parts per million of >500) |
| CNC(=O)ON=C(CCSC)C(C)(C)C [Compound 8111, 4,4-dimethyl-3-methylcarbamyloximino-1-methylthiopentane] | 3 (50% mortality at concentration in parts per million of 128-64) | 0 (50% mortality at concentration in pounds per acre of >16) | 3 (50% mortality at concentration in parts per million of 128-64) |
| CNC(=O)ON=C(CSC)C1CC1 [Compound 8465, 1-cyclopropyl-1-methylcarbamyloximino-2-methylthioethane] | 5 (50% mortality at concentration in parts per million of 32-16) | 4 (50% mortality at concentration in pounds per acre of 2-1) | 2 (50% mortality at concentration in parts per million of 250-128) |
| CNC(=O)ON=C(CSC)CC(C)(C)C [Compound 8519, 4,4-dimethyl-2-methylcarbamyloximino-1-methylthiopentane] | 5 (50% mortality at concentration in parts per million of 32-16) |  | 2 (50% mortality at concentration in parts per million of 250-128) |
| CCC(C)(C)C(CSC)=NOC(=O)NC [Compound 8520, 3,3-dimethyl-2-methylcarbamyloximino-1-methylthiopentane] | 8 (50% mortality at concentration in parts per million of 4-2) | 4 (50% mortality at concentration in pounds per acre of 2-1) | 6 (50% mortality at concentration in parts per million of 16-8) |
| CNC(=O)ON=C(CS(C)(=O)=O)C(C)(C)C [Compound 8868, 3,3-dimethyl-2-methylcarbamyloximino-1-methylsulfonylbutane] | 8 (50% mortality at concentration in parts per million of 4-2) | 7 (50% mortality at concentration in pounds per acre of 1/4-1/8) | 6 (50% mortality at concentration in parts per million of 16-8) |
| CNC(=O)ON=C(CN=[N+]=[N-])C(C)(C)C [Compound 8997, 1-azido-3,3-dimethyl-2-methylcarbamyloximinobutane] | 7 (50% mortality at concentration in parts per million of 8-4) | 6 (50% mortality at concentration in pounds per acre of 1/2-1/4) | 3 (50% mortality at concentration in parts per million of 128-64) |
| CNC(=O)ON=C(CSCCSC)C(C)(C)C [Compound 9026, 3,3-dimethyl-2-methylcarbamyloximino-1-(2-methylthioethylthio)-butane] | 4 (50% mortality at concentration in parts per million of 64-32) | 0 (50% mortality at concentration in pounds per acre of >16) | 4 (50% mortality at concentration in parts per million of 64-32) |
| CCCC(CSC)=NOC(=O)NC [Compound 9057, 2-methylcarbamyloximino-1-methylthiopentane] | 7 (50% mortality at concentration in parts per million of 8-4) | 4 (50% mortality at concentration in pounds per acre of 2-1) | 0 (50% mortality at concentration in parts per million of >500) |
| CNC(=O)ON=C(CSC)CC(C)C [Compound 9058, 4-methyl-2-methylcarbamyloximino-1-methylthiopentane] | 7 (50% mortality at concentration in parts per million of 8-4) | 6 (50% mortality at concentration in pounds per acre of 1/2-1/4) | 2 (50% mortality at concentration in parts per million of 250-128) |
